Source: PMC3420880
No constants are given. Whether binding was seen depends on the method and setting. In cells and extracts the contact can be indirect. Some binding calls cover weakened binding; strength is not graded here.

Amino acid sequences for entries named in this document (tags omitted). A change or cut given only in a name is not applied to a line headed by its entry. Chains listed by the source or under a name are the forms on record and can include a tag or linker. Residues count along the entry.
TSHR(W) tagged with eCFP or eYFP at the C-terminal (P47750, residues 22-764): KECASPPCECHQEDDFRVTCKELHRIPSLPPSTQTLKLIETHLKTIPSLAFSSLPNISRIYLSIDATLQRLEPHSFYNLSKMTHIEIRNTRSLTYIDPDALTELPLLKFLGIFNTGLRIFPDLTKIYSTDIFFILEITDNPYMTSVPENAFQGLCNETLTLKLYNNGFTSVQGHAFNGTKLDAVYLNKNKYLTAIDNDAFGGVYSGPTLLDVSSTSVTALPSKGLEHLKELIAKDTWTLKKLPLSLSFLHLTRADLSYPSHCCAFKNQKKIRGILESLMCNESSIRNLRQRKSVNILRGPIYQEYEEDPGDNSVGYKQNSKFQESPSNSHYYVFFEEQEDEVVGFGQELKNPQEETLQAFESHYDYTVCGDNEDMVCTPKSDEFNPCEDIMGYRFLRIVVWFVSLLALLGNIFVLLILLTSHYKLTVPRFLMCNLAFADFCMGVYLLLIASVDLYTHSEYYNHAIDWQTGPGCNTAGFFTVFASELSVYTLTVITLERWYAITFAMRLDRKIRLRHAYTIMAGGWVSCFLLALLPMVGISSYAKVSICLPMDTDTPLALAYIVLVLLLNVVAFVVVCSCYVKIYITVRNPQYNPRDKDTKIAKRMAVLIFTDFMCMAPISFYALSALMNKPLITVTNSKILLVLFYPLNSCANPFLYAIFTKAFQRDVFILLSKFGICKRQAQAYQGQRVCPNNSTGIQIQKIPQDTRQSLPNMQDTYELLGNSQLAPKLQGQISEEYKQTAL
TSHR(M) (P556L) tagged with eCFP or eYFP at the C-terminal (P47750, form named): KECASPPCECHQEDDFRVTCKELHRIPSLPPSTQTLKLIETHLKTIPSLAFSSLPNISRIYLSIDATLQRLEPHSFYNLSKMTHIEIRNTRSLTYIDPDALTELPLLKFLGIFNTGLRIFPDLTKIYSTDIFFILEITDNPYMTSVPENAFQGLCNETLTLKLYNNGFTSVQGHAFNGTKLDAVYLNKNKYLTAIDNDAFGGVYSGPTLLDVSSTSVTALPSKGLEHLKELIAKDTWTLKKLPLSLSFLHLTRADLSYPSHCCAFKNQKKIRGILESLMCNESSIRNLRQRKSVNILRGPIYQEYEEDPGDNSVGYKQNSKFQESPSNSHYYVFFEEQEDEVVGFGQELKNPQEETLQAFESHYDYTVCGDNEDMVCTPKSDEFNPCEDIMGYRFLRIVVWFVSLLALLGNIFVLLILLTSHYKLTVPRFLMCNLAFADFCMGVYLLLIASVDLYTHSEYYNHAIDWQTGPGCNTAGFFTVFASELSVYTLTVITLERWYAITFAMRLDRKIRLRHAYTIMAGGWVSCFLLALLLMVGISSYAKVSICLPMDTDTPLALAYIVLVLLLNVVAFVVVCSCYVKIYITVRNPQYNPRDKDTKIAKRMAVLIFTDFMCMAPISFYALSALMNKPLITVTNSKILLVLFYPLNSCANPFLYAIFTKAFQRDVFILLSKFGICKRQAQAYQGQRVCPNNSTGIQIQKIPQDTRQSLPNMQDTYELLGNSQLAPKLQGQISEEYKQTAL

Legend:
[1] = molecular target: TSHR(W) tagged with eCFP or eYFP at the C-terminal (mouse) (UniProt P47750); assay: cross-linking; dimethyl suberimidate 2 mg/ml, 30 min, on TSHR-expressing HEK 293 cells in 10 mM carbonate buffer with 0.15 M NaCl, with or without 1 mU/ml TSH; SDS-PAGE and Western blot with anti-TSHR antibody
[2] = molecular target: TSHR(M) (P556L) tagged with eCFP or eYFP at the C-terminal (mouse) (UniProt P47750); assay: FRET or BRET; emission FRET in single living HEK 293 cells, eCFP donor and eYFP acceptor, 72 h after transfection, regions of interest from 10 cells; with 1 mU/ml TSH
[3] = molecular target: TSHR(W) tagged with eCFP or eYFP at the C-terminal (mouse) (UniProt P47750); assay: as above
[4] = molecular target: TSHR(M) (P556L) tagged with eCFP or eYFP at the C-terminal (mouse) (UniProt P47750); assay: FRET or BRET; emission FRET in single living HEK 293 cells, eCFP donor and eYFP acceptor, 72 h after transfection, regions of interest from 10 cells; without TSH
[5] = molecular target: TSHR(W) tagged with eCFP or eYFP at the C-terminal (mouse) (UniProt P47750); assay: as above

Row | Substance | binding [1] | binding [2] | binding [3] | binding [4] | binding [5]
1 | TSHR(M) (P556L) tagged with eCFP or eYFP at the C-terminal (from UniProt P47750 22-764) (receptor) | binds | binds | binds | binds | binds
2 | TSHR(W) tagged with eCFP or eYFP at the C-terminal (from UniProt P47750 22-764) (receptor) | binds |  | no binding (condition: with 1 mU/ml TSH) |  | binds
